# Source: a collection of fitness landscapes (doi:10.1126/science.1257360)
# This is one part of the list.
# B1: PhoQ; a variant is named by its letters at X, in order, P23837 (parent)
# chain: MKKLLRLFFPLSLRVRFLLATAAVVLVLSLAYGMVALIGYSVSFDKTTFRLLRGESNLFYTLAKWENNKLHVELPENIDKQSPTMTLIYDENGQLLWAQRDVPWLMKMIQPDWLKSNGFHEIEADVNDTSLLLSGDHSIQQQLQEVREDDDDAEMTHSVAVNVYPATSRMPKLTIVVVDTIPVELKSSYMVWSWFIYVLSANLLLVIPLLWVAAWWSLRPIEALAKEVRELEEHNRELLNPATTRELTSLVRNLNRLLKSERERYDKYRTTLTDLTHSLKTPLXXLQXXLRSLRSEKMSVSDAEPVMLEQISRISQQIGYYLHRASMRGGTLLSRELHPVAPLLDNLTSALNKVYQRKGVNISLDISPEISFVGEQNDFVEVMGNVLDNACKYCLEFVEISARQTDEHLYIVVEDDGPGIPLSKREVIFDRGQRVDTLRPGQGVGLAVAREITEQYEGKIVAGESMLGGARMEVIFGRQHSAPKDE
# Variants of: B1
# Test: enrichment ratio after two sorts for PhoP signalling (ratio (wild type AVST 3.29)); higher = more functional
# Details: with PhoP (E. coli)
row,Variant,enrichment ratio
1,SISL,10.9
2,FWHS,≤ 0.25
3,IPPE,≤ 0.25
4,SDHE,0.709
5,QIDC,≤ 0.25
6,YLQF,≤ 0.25
7,PLAW,≤ 0.25
8,GNAD,≤ 0.25
9,RNMH,≤ 0.25
10,EFVF,≤ 0.25
11,VAGN,≤ 0.25
12,INDH,≤ 0.25
13,SVDQ,≤ 0.25
14,LEMF,≤ 0.25
15,MSQY,1.53
16,NKWE,≤ 0.25
17,GNQY,≤ 0.25
18,PHHK,≤ 0.25
19,VFTN,0.47
20,WSWP,≤ 0.25
21,FYRA,≤ 0.25
22,SGRP,≤ 0.25
23,AWWI,≤ 0.25
24,VKFE,≤ 0.25

row,Variant,enrichment ratio
1,DASG,≤ 0.25
2,SEKK,≤ 0.25
3,TQVL,7.43
4,MDLE,≤ 0.25
5,IFKS,≤ 0.25
6,PSAP,≤ 0.25
7,IEPS,≤ 0.25
8,SDKT,≤ 0.25
9,GWHA,≤ 0.25
10,VQGQ,≤ 0.25
11,SGPF,≤ 0.25
12,TKNG,2.72
13,HVGD,≤ 0.25
14,ICQF,≤ 0.25
15,TIRY,≤ 0.25
16,MTDE,≤ 0.25
17,NKYN,≤ 0.25
18,ESRG,≤ 0.25
19,YCTK,≤ 0.25
20,AKIA,2.13
21,LNDH,≤ 0.25
22,GWIY,≤ 0.25
23,KTWI,≤ 0.25
24,PPRC,≤ 0.25

row,Variant,enrichment ratio
1,LWAV,≤ 0.25
2,RIQN,≤ 0.25
3,IFTC,≤ 0.25
4,PRLL,≤ 0.25
5,HIQM,≤ 0.25
6,FKLM,9.2
7,MYGI,≤ 0.25
8,QEIN,≤ 0.25
9,VQAS,≤ 0.25
10,PYFH,≤ 0.25
11,FQVA,≤ 0.25
12,MISD,≤ 0.25
13,PTSH,≤ 0.25
14,HHVI,≤ 0.25
15,KYPP,≤ 0.25
16,VRMA,≤ 0.25
17,KEDS,≤ 0.25
18,DNGD,≤ 0.25
19,TESA,11.7
20,NWRW,≤ 0.25
21,PPGV,≤ 0.25
22,RLFD,≤ 0.25
23,VTLP,≤ 0.25
24,LCEW,≤ 0.25

row,Variant,enrichment ratio
1,RLFI,≤ 0.25
2,WWAP,≤ 0.25
3,YIWE,≤ 0.25
4,SYIN,≤ 0.25
5,RLDS,≤ 0.25
6,LWGC,≤ 0.25
7,FAID,≤ 0.25
8,DYWP,≤ 0.25
9,LRGR,≤ 0.25
10,LWDV,≤ 0.25
11,FCSV,≤ 0.25
12,LPTA,≤ 0.25
13,MLPE,≤ 0.25
14,RHEI,≤ 0.25
15,FALL,16.3
16,PMQA,≤ 0.25
17,RMRQ,≤ 0.25
18,EPRN,≤ 0.25
19,WKGT,≤ 0.25
20,CVSH,≤ 0.25
21,IRYE,≤ 0.25
22,GFLQ,≤ 0.25
23,DTPK,≤ 0.25
24,HTTN,≤ 0.25

row,Variant,enrichment ratio
1,LWNR,≤ 0.25
2,GGRF,≤ 0.25
3,DYHF,≤ 0.25
4,FPIC,≤ 0.25
5,DFLN,≤ 0.25
6,GLKA,≤ 0.25
7,HRLN,≤ 0.25
8,QPGV,≤ 0.25
9,QQFR,≤ 0.25
10,MCPA,≤ 0.25
11,ASGV,7.94
12,TNTY,≤ 0.25
13,KKGI,≤ 0.25
14,PLRF,≤ 0.25
15,EMMG,≤ 0.25
16,LERT,≤ 0.25
17,YPFK,≤ 0.25
18,KGPR,≤ 0.25
19,LCAN,≤ 0.25
20,RDIC,≤ 0.25
21,RACI,≤ 0.25
22,QLLE,≤ 0.25
23,TNEW,≤ 0.25
24,TRTS,≤ 0.25

row,Variant,enrichment ratio
1,MYPW,≤ 0.25
2,LPYP,≤ 0.25
3,FRTM,≤ 0.25
4,VWKF,≤ 0.25
5,WGGN,≤ 0.25
6,LRNI,≤ 0.25
7,VQAC,≤ 0.25
8,WVWN,≤ 0.25
9,LSNV,≤ 0.25
10,KCHY,≤ 0.25
11,PRPW,≤ 0.25
12,GDSF,≤ 0.25
13,FTYV,≤ 0.25
14,IGIV,≤ 0.25
15,VFEN,≤ 0.25
16,VPWS,≤ 0.25
17,WLFC,≤ 0.25
18,MCLI,4.17
19,PSIV,≤ 0.25
20,STRG,≤ 0.25
21,SYNR,≤ 0.25
22,IDVH,≤ 0.25
23,MQDA,≤ 0.25
24,RDAT,≤ 0.25

row,Variant,enrichment ratio
1,SWCI,≤ 0.25
2,ENHK,≤ 0.25
3,NGNY,≤ 0.25
4,KKQM,≤ 0.25
5,YCGP,≤ 0.25
6,DDVT,≤ 0.25
7,SNSG,10.7
8,MVYF,2.36
9,IHFH,≤ 0.25
10,VVLT,≤ 0.25
11,SECE,15.4
12,NLAS,≤ 0.25
13,YWCT,≤ 0.25
14,SYRM,≤ 0.25
15,RFMW,≤ 0.25
16,NPSP,≤ 0.25
17,IVCN,≤ 0.25
18,RTRE,≤ 0.25
19,DNAL,≤ 0.25
20,HCKY,≤ 0.25
21,HVCL,≤ 0.25
22,TCDM,≤ 0.25
23,EVCW,≤ 0.25
24,GVRQ,≤ 0.25

row,Variant,enrichment ratio
1,KDAF,≤ 0.25
2,IMED,≤ 0.25
3,NAMR,≤ 0.25
4,RIDI,≤ 0.25
5,YVAF,0.382
6,LDPQ,≤ 0.25
7,FVDK,≤ 0.25
8,PSFM,≤ 0.25
9,VHID,≤ 0.25
10,RRFK,≤ 0.25
11,TPMN,≤ 0.25
12,LDMR,≤ 0.25
13,PLPP,≤ 0.25
14,PTNI,≤ 0.25
15,VADY,≤ 0.25
16,AYWW,≤ 0.25
17,RHPF,≤ 0.25
18,KDQQ,≤ 0.25
19,GQGK,≤ 0.25
20,AMFN,≤ 0.25
21,HEKI,≤ 0.25
22,VFAP,≤ 0.25
23,LIHS,≤ 0.25
24,NNWH,≤ 0.25

row,Variant,enrichment ratio
1,FDRH,0.281
2,TETG,35.8
3,LTPC,≤ 0.25
4,YHFH,≤ 0.25
5,RGIE,≤ 0.25
6,AGQY,≤ 0.25
7,ISRS,≤ 0.25
8,LHRG,≤ 0.25
9,PCHV,≤ 0.25
10,NALE,≤ 0.25
11,GIPP,≤ 0.25
12,PMGL,≤ 0.25
13,ATMR,≤ 0.25
14,KATV,≤ 0.25
15,MHWT,≤ 0.25
16,GFED,≤ 0.25
17,ICFN,≤ 0.25
18,TNDP,≤ 0.25
19,VSEL,≤ 0.25
20,ELSW,≤ 0.25
21,CLLQ,≤ 0.25
22,TRAR,≤ 0.25
23,QVSH,2.04
24,WYWD,≤ 0.25

row,Variant,enrichment ratio
1,HTNV,≤ 0.25
2,VMKV,≤ 0.25
3,NDIL,≤ 0.25
4,NTEM,≤ 0.25
5,RVIG,≤ 0.25
6,ISWD,≤ 0.25
7,TEQG,5.86
8,HYGP,≤ 0.25
9,MQQL,≤ 0.25
10,TPLN,≤ 0.25
11,YSVD,≤ 0.25
12,REFM,≤ 0.25
13,LRKC,≤ 0.25
14,LEIE,≤ 0.25
15,MQQI,≤ 0.25
16,VMDL,≤ 0.25
17,QMPR,≤ 0.25
18,QLEA,≤ 0.25
19,RGLV,≤ 0.25
20,IQHF,≤ 0.25
21,GEKV,≤ 0.25
22,YTYF,≤ 0.25
23,SMAD,4.68
24,HTYF,≤ 0.25

row,Variant,enrichment ratio
1,YMIK,≤ 0.25
2,PSNM,≤ 0.25
3,IQDK,≤ 0.25
4,HAYM,≤ 0.25
5,QVMR,≤ 0.25
6,QQFH,≤ 0.25
7,FLDV,7.24
8,ILKH,≤ 0.25
9,WRVW,≤ 0.25
10,GKLT,≤ 0.25
11,MYES,≤ 0.25
12,MTLR,≤ 0.25
13,ARAL,1.05
14,TFRM,≤ 0.25
15,IWKF,≤ 0.25
16,LCDE,≤ 0.25
17,HFVS,≤ 0.25
18,TVGW,3.79
19,HFCH,≤ 0.25
20,MINA,≤ 0.25
21,VIFD,≤ 0.25
22,VTFE,≤ 0.25
23,MRDI,≤ 0.25
24,DGHM,≤ 0.25

row,Variant,enrichment ratio
1,MNNN,≤ 0.25
2,PYWF,≤ 0.25
3,GGFP,≤ 0.25
4,GNEQ,≤ 0.25
5,TLRF,≤ 0.25
6,AHLP,≤ 0.25
7,YEMH,≤ 0.25
8,RYEL,≤ 0.25
9,ESLT,≤ 0.25
10,YLMF,≤ 0.25
11,IQWQ,≤ 0.25
12,TETI,17.3
13,RQKT,≤ 0.25
14,DIVE,≤ 0.25
15,IPRG,≤ 0.25
16,NQWS,≤ 0.25
17,DIYY,≤ 0.25
18,GFVP,≤ 0.25
19,TRFG,≤ 0.25
20,IHCG,≤ 0.25
21,RQSQ,≤ 0.25
22,KAGM,≤ 0.25
23,KTNY,≤ 0.25
24,DGWH,≤ 0.25

row,Variant,enrichment ratio
1,REIE,≤ 0.25
2,ILQG,≤ 0.25
3,NTMT,≤ 0.25
4,CHFA,≤ 0.25
5,TQQV,6.6
6,VYFE,≤ 0.25
7,VLED,≤ 0.25
8,PCLV,≤ 0.25
9,GSSD,≤ 0.25
10,VEEY,≤ 0.25
11,PMLF,≤ 0.25
12,LEFG,10.6
13,VYAS,≤ 0.25
14,FVNG,≤ 0.25
15,AYAP,≤ 0.25
16,YANV,≤ 0.25
17,RARP,≤ 0.25
18,KKHN,≤ 0.25
